Several values for one entry are separate records, joined by “and”; a condition that tells them apart may be missing. Identical values can stand only once. In all, about 110,000 compounds went through this assay and about 230 (0.21%) showed an effect of 50% or more. The list shows a part of the results.
molecular target: DPAP1 (Plasmodium falciparum, UniProt Q8IIJ9); experiment: primary screen, percent inhibition; read by cleavage of a fluorogenic dipeptide substrate; higher = more effect of the substance; set-up: species or system P. falciparum D10 trophozoite lysates; single well
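Also: 30 min substrate incubation versus DMSO and 10 µM JCP410 controls.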

Sequence of DPAP1 (Q8IIJ9 whole entry, looked up): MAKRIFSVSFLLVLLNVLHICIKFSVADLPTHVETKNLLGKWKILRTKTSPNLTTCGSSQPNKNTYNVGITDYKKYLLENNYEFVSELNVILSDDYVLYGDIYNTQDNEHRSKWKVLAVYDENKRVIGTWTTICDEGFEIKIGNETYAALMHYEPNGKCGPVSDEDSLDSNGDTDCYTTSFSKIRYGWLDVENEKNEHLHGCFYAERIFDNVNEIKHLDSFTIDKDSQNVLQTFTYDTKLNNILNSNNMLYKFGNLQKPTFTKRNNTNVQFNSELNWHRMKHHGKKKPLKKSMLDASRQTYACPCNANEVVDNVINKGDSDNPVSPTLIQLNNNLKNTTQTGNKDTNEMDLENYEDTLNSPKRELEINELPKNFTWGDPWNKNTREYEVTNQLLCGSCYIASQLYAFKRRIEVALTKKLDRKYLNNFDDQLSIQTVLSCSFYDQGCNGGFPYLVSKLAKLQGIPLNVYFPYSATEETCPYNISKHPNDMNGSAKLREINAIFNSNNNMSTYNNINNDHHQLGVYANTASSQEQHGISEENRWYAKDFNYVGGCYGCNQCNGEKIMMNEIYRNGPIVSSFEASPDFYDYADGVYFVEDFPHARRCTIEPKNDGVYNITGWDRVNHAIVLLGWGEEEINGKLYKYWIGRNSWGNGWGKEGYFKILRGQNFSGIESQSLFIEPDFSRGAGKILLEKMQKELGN

Point of comparison: CC(=O)C1=NN(c2ccccc2)C(c2ccc3c(c2)OCO3)N1c1ccc(N2CCOCC2)cc1 (stereo not shown), “% Inhibition @ 10 uM” value -5.46%. Against it:
- COCCCN1COc2ccc3c(-c4ccccc4)cc(=O)oc3c2C1 — higher, -3.36%
- Cc1ccc(CCNC(=O)CSCc2nc(-c3ccccc3C)oc2C)cc1 — higher, -2.85%
- Cc1ccccc1NC(=O)c1ccc2c(c1)OCO2 — higher, 4.53%
- Cc1ccc(-n2nc(C)c(/C=N/c3ccc(Br)cn3)c2O)cc1C — higher, 1.76%
- Cc1cc(CN2CCN(Cc3ccc4c(c3)OCO4)CC2)cs1 — higher, 2.57%
- CSC1=C(C#N)C(c2ccc(OCc3ccccc3)cc2)CC(=O)N1 (stereo not shown) — higher, -2.35%
- CC(C)NC(=O)C(=O)Nc1ccc(Cl)c(Cl)c1 — higher, -3.5%
- CS/C(=C\C(=O)c1cccs1)CC(=O)c1cccs1 — higher, -2.98%
- N#Cc1ccccc1NC(=O)CSc1nc2ccccc2[nH]1 — higher, 9.94%
- Cc1coc2cc3oc(=O)c(CCC(=O)NCc4ccc(F)cc4)c(C)c3cc12 — higher, -0.808%
- CC(C)C(NC(=O)c1ccc(C23CC4CC(CC(C4)C2)C3)cc1)C(=O)NCCCN1CCOCC1 (stereo not shown) — higher, 0.505%
- CCOC(=O)c1c(C)c(C(=O)OCC)n(C)c1C — higher, -2.47%
- CCOc1ccc(Cn2c(-c3nonc3NC(C)=O)nc3ccccc32)cc1OCC — higher, -1.52%
- O=C(Cc1ccccc1)NCn1nnc(-c2cccnc2)n1 — higher, -0.403%
- COc1ccc(-c2onc(C)c2C)cc1S(=O)(=O)NCCc1cccs1 — lower, -11.4%
- COc1ccc(CO/C(O)=C2\C(C)=NC3=C(C(=O)CC(C)(C)C3)C2c2coc3ccccc3c2=O)cc1 (stereo not shown) — higher, 6.12%
- Cc1ccc(NC2=NS(=O)(=O)c3ccccc32)cc1 — higher, 2.76%
- Clc1ccc(C2=CC(c3ccccc3Cl)n3ncnc3N2)cc1 (stereo not shown) — higher, 0.131%
- CC1CCN(S(=O)(=O)c2cccc3ccccc23)CC1 — higher, -3.74%
- NC(=O)CNC(=O)C1(NC(=O)c2ccc(-c3ccc(S(=O)(=O)N4CCNCC4)s3)cc2)CCCCC1 — lower, -6.46%
- O=C(CC1(O)C(=O)Nc2ccccc21)c1ccccc1 (stereo not shown) — higher, 2.76%
- COc1ccccc1S(=O)Cc1ccc(C(=O)O)o1 (stereo not shown) — higher, 4.61%
- C=C(C)[C@@H]1CC=C(CN2CCN(c3ccccn3)CC2)CC1 — higher, -5.42%
- O=C1NC2CCCCC2NC1CC(=O)N1CCN(C(c2ccccc2)c2ccccc2)CC1 (stereo not shown) — higher, 0.627%
- CCC(Sc1ncccc1Nc1ccccn1)C(=O)O (stereo not shown) — higher, -2.45%
- O=C(CCCOc1ccc(Cl)cc1Cl)N(C1CCCCC1)C1CCCCC1 — higher, 2.47%
- CC(C)(C)c1ccc(OCc2nnc(S)n2N)cc1 — higher, 2.7%
- COc1ccc(CNc2ncnc3c2cnn3-c2ccc(C)cc2C)cc1 — higher, -2.49%
- CCCN(CCC)C(=O)CS(=O)Cc1nc(-c2ccccc2)oc1C (stereo not shown) — higher, -1.89%
- CC1(C)CC(=O)C(=Cc2cn(-c3ccccc3)nc2-c2cccs2)C(=O)C1 — higher, -1.93%
- C=CCn1c(SCc2ccc(C(=O)OC)cc2)nc2ccccc2c1=O — higher, 2.55%
- COc1cc(C(=O)Nc2cccc(-c3cn4ccc(C)cc4n3)c2)cc(OC)c1OC — higher, 3.21%
- NC(=O)C1(N2CCCCC2)CCN(S(=O)(=O)Cc2ccccc2)CC1 — higher, -4.19%
- CC(=O)Nc1ccc(Oc2nc(C)nc3sc4c(c23)CCCC4)cc1 — higher, -0.511%
- CC(CNC(=O)Cn1cc2c(n1)CCCC2)c1ccccc1 (stereo not shown) — higher, -1.58%
- Cc1cccc(OCCCN2CCOCC2)c1 — higher, -2.28%
- O=C(c1cnn2c(C(F)(F)F)cc(-c3ccc4c(c3)OCO4)nc12)N1CCOCC1 — higher, 3.32%
- COc1ccc(C(=O)CCC(=O)NC2=NCCS2)cc1 — higher, -3.21%
- CCN(Cc1ccccc1)S(=O)(=O)Cc1ccccc1Cl — higher, -0.834%
- CC(C)CN(CC(C)C)C(=O)c1cc(-c2ccc(Cl)cc2)[nH]n1 — higher, 3.64%
- CCN(CC)C(=O)C1CCCN(Cc2cccc(C(F)(F)F)c2)C1 (stereo not shown) — higher, -1.86%
- COC(=O)c1ccc(-c2ccco2)[nH]1 — higher, 1.63%
- CC1CCCN(C(=O)CCCOc2ccc(Cl)cc2Cl)C1 (stereo not shown) — higher, -5.18%
- O=C(O)C1C2C=CC(C2)C1C(=O)Nc1ccccc1Br (stereo not shown) — lower, -6.22%
- Cn1c(=O)c2c(-c3ccccc3)n(Cc3ccccc3)cc2n(C)c1=O — lower, -7.17%
- O=C(NCCc1c[nH]c2ccc(OCc3ccccc3)cc12)c1ccco1 — higher, 4.93%
- O=S(=O)(NCCc1ccncc1)c1ccc(Br)cc1 — lower, -5.58%
- Cc1cc(C)n(C(C)CC(=O)NCCc2ccc(Cl)cc2)n1 (stereo not shown) — higher, 0.762%
- CCC1CCc2c(sc(NC(=O)CCc3ccccc3)c2C(N)=O)C1 (stereo not shown) — higher, 2.36%
- O=C(O)[C@H](Cc1ccc(O)cc1)N1C(=O)c2ccccc2C1=O — higher, 2.39%
- Cc1cccc(-c2nc(CS(=O)CC(=O)NCC3CCCO3)c(C)o2)c1 (stereo not shown) — higher, -1.05%
- Cc1ccc(C(=O)Nc2cccc(NC(=O)c3ccc(C)cc3)n2)cc1 — higher, 3.57%
- Cc1ccc(C2c3c(oc4ccccc4c3=O)C(=O)N2c2nnc(C(C)C)s2)cc1 (stereo not shown) — higher, 1.19%
- COc1ccc(C(=O)c2ccc(Br)cc2)cc1 — higher, 0.912%
- Cc1ccccc1-c1nnc(SCC(=O)N2CC(C)CC(C)C2)o1 (stereo not shown) — higher, 5.1%
- O=c1c2c(ncn1Cc1ccccc1)nc1n2CCC1 — higher, 0.634%
- COc1ccc(/C=C2\N=C(c3ccc(C(C)(C)C)cc3)OC2=O)cc1 — higher, -1.51%
- COc1ccc(/C=C2/NC(=S)NC2=O)cc1 — higher, 1.7%
- Cc1cc(O)c(C2=NCCSC(c3ccc(O)cc3)C2)c(=O)o1 (stereo not shown) — higher, 4.89%
- CCCc1cc(C(=O)Nc2c(C)nn(Cc3ccccc3C)c2C)no1 — lower, -7.23%
- CCOc1ccc2nc(N3CCC(C(=O)NC(C)C45CC6CC(CC(C6)C4)C5)CC3)sc2c1 (stereo not shown) — higher, -1.58%
- c1ccc(-c2cnn3c(-c4ccccc4)cnc3n2)cc1 — higher, -1.99%
- CC1(C)OC(=O)C(C#N)=C1/C=C/c1ccco1 — higher, -1.22%
- Cc1c(C)n(CCN(C)C)c2ccc(C(=O)OCCN(C)C)cc12 — higher, -1.77%
- CCOC(=O)c1c(-c2ccccc2)oc2ccc(OCC(=O)O)cc12 — higher, 6.22%
- C=CCNC(=O)C1CCCN(S(=O)(=O)N2CCN(C(=O)OCC)CC2)C1 (stereo not shown) — higher, 0.387%
- COc1cc(CN2CCN(Cc3cccc(OC)c3OC)CC2)cc(OC)c1 — higher, -0.564%
- CC(Oc1ccccc1)C(=O)Nc1nnc(-c2ccc3c(c2)OCO3)s1 (stereo not shown) — higher, 1.58%
- Cc1cccc2c1-c1sc(C(=O)Nc3cnc4ccccc4c3)cc1CO2 — higher, -1.37%
- Cc1nc2cccnc2n1-c1ccc(CC(=O)NCc2ccc3c(c2)OCO3)cc1 — higher, 8.76%
- Cn1c(=O)c2c(nc(SCC(=O)NC(C)(C)C)n2Cc2ccccc2Cl)n(C)c1=O — higher, 0.746%
- CCC(C#N)OC(=O)[C@H](CC(C)C)NC(=O)OCc1ccccc1 (stereo partly shown) — higher, 3.19%
- COc1ccc(C2C(C(=O)Nc3cccnc3)=C(C)Nc3nc(CCCO)nn32)cc1OC (stereo not shown) — higher, 3.81%
- Cc1cc2nnc(SCC(=O)NCc3ccc4c(c3)OCO4)n2c2ccccc12 — higher, 1.84%
- CCOc1ccc2nc(NC(=O)CCn3cccc3)sc2c1 — higher, -2.67%
- CC(C)COc1ccc(C(=O)NC(CC(=O)O)c2ccccc2)cc1 (stereo not shown) — higher, 0.222%
- COc1ccc(C)cc1-n1nnc(-c2nc(-c3ccc4c(c3)OCO4)no2)c1N — higher, 4.98%
- CC(C)c1ccc2[nH]c(-c3ccc(N)cc3)nc2c1 — higher, -4.54%
- CCOc1ccc(CC/N=C2\C=C(O)OC23CCCCC3)cc1OCC — higher, -3.5%
- Oc1cccc(CN2CCN(c3ccccc3)CC2)c1 — higher, 3.1%
- N#Cc1ccc(Oc2ccc3c4c(cccc24)C(=O)C3=O)cc1 — higher, 7.35%
- O=C1c2cccnc2C(O)N1Cc1ccc(F)cc1 (stereo not shown) — higher, -2.88%
- C=CCOc1ccc(CNc2nccs2)cc1OCC — higher, -3.43%
- CCCn1c(=N)n(CC(O)c2ccc(Br)cc2)c2ccccc21 (stereo not shown) — higher, 3.86%
- COc1ccc(-c2noc(CN(C(=O)C(C)Oc3ccc(Br)cc3)C(C)C)n2)cc1 (stereo not shown) — higher, 5.29%
- O=C(O)CSc1nc2c(cnn2-c2ccccc2)c(=O)n1-c1ccccc1 — higher, 2.36%
- CCN(CC)CCN(C)C1CCCCCC1 — higher, -1.21%
- CCOC(=O)c1sc(NC(=O)c2cc(-c3ccc(OC)c(OC)c3)nc3ccccc23)nc1C — higher, -3.02%
- OCc1cccc[n+]1CCc1ccccc1 — higher, 1.02%
- COC(=O)CC(C)NC(C)Cc1ccccc1 (stereo not shown) — higher, 13.7%
- CCOC(=O)C1=C(C)N=c2s/c(=C\c3cc(Cl)ccc3O)c(=O)n2C1c1ccccc1 (stereo not shown) — higher, 33.5%
- COc1ccc2oc(=O)c(C(=O)Nc3nc4ccccc4s3)cc2c1 — higher, -2.72%
- CN1CCN(Cc2nnc(S)n2-c2ccc(F)cc2)CC1 — higher, 4.17%
- Cc1cccc(C)c1OCC(=O)Nc1sc(C)c(C)c1C(N)=O — higher, 2.32%
- Cc1ccccc1NC(=O)c1cc(S(=O)(=O)Nc2ccccn2)ccc1Cl — higher, -3.52%
- CC1CCCCC1NC1CCN(CCc2ccccc2)CC1 (stereo not shown) — higher, -1.21%
- CCOc1ccc(S(=O)(=O)/N=C2\C=C(NS(=O)(=O)c3ccccc3)C(=O)c3ccccc32)cc1 — higher, -3.75%
- Cc1ccc(Cl)cc1N1CCN(S(=O)(=O)N2CCCCC2)CC1 — higher, 1.84%
- Cc1nc2cc(NC(=O)NC3=NCCS3)ccc2n1C — higher, 3.74%
- O=C(CCCOc1ccccc1)NCc1ccco1 — higher, -3.65%
- COc1ccc(C2=NN(C(=O)c3cccc(Cl)c3)C(O)(C(F)(F)F)C2)cc1 (stereo not shown) — higher, 2.65%

With COc1cc(/C=C2/C(=O)CNC2=O)ccc1O the “% Inhibition @ 10 uM” value was -0.902% and -6.87%.
